# Experimental data reported in PubChem BioAssay AID624418 (National Center for Advancing Translational Sciences (NCATS), 2012).
# Among all 410,000 compounds or so, about 530 (0.13%) were called active. Inconclusive results, whose numbers are uncertain, are shown with a selection of clear calls. Calls come from the whole dose curve; as a rule, active = well fitted inhibition curve with a large enough effect; inconclusive = small, poorly fitted or top-dose-only effect, or another doubt; inactive = no such curve, though single readings can be large or run the other way. Potencies beside an inconclusive call are fits to weak or partial responses and may not hold up.
# Assay: qHTS of GLP-1 Receptor Inverse Agonists: Cytotox Screen
# Details: HEK293 cAMP-luciferase reporter cells, luminescence, 24 h; activity change, negative = inhibition: at 38.3 µM (top of the series) unless noted
# Procedure, shortened: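 Compound-treated cells are incubated 24 hr at 37 deg C under 5% CO2 after a 12 hour attachment period, then luciferase detection reagent is added and luminescence is measured following 12 min at room temperature; lowered signal indicates toxicity.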
# % is set by controls: 0 for no effect and ±100 for the full control effect; potency is the fitted concentration of half-maximal effect.
SMILES,Potency,"activity change, negative = inhibition"
COc1ccc(/C=C2\SC(=NCc3ccccc3)NC2=O)cc1,inactive,–
CCOc1cccc(/C=C2/NC(=O)N(CC(=O)Nc3cccc(C)c3)C2=O)c1O,inactive,–
COCCn1c(=O)[nH]c2cc(C(=O)Nc3nnc(C)s3)ccc21,"inconclusive: 5.01 µM [inhibitor, full curve]",–
COCCCNC(=O)c1ccc2c3c(onc13)-c1ccccc1C2=O,"inconclusive: 28.2 µM [inhibitor, single point]",–
COc1ccc(/C=C\C(=O)O[C@@H]2C(O)C(O[C@@H]3OC(C)[C@H](O[C@@H]4OCC(O[C@H]5O[C@H](CO)[C@@H](O)C(O)C5O)C(O)C4O)C(O)C3O)[C@H](OC(=O)[C@]34CCC(C)(C)C[C@@H]3C3=CCC5[C@@]6(C)CC(O)C(O[C@@H]7OC(CO)C(O)[C@H](O)[C@H]7O)[C@@](C)(C(=O)O)C6CC[C@@]5(C)[C@]3(CO)CC4)O[C@H]2C)cc1 (some centres undefined),"inconclusive: 12.6 µM [inhibitor, partial curve, poor fit]",–
COc1ccc(-c2nnc(SCC(=O)Nc3ccc(C)c(C)c3)s2)cc1,inactive,–
Cc1cc(C)cc(C(=O)NCC(=O)NNC(=O)CSc2ccccc2F)c1,inactive,–
CCOc1ccc2nc(SCC(=O)NC(=O)NCc3ccco3)sc2c1,"inconclusive: 28.2 µM [inhibitor, single point]",–
Cc1cccc(NC(=S)NCc2ccco2)n1,"inconclusive: 28.2 µM [inhibitor, partial curve, poor fit]",–
N#C/C(=N\Nc1cccc(C(F)(F)F)c1)C(=O)c1ccsc1,"inconclusive: 11.2 µM [inhibitor, partial curve]",–
CCOC(=O)C1=C(C)NC(=S)N(C(C)=O)C1c1ccccc1 (centres undefined),"inconclusive: 14.1 µM [inhibitor, partial curve, poor fit]",–
N#Cc1c(NC(=O)c2cccnc2)sc2c1CCC2,"inconclusive: 11.2 µM [inhibitor, single point]",–
Cc1cccc(NC(=S)NCc2ccc3c(c2)cc(C)n3C)c1C,"inconclusive: 12.6 µM [inhibitor, single point]",–
CCOc1ccc(-c2nnc3ccc(SC(C)C)nn23)cc1,"inconclusive: 12.6 µM [inhibitor, single point]",–
CNS(=O)(=O)c1cc2c3c(cccc3c1)C(=O)NC2=O,"inconclusive: 10 µM [inhibitor, partial curve, poor fit]",–
Cc1cccc(NC2=CC(=O)OC(C)C2)c1 (centres undefined),inactive,–
COc1ccc(C(=O)Nc2ccc(N3CCN(c4ccc(OC)cc4)CC3)c(C#N)c2)cc1,inactive,–
O=C1CC(c2ccccc2)=NN1c1ccccc1,"inconclusive: 31.6 µM [inhibitor, single point]",–
O=C(COc1cccc(OC(F)F)c1)Nc1ccc(SC(F)F)cc1,inactive,–
COc1ccc2c(CNCCc3ccccc3OC)c(C(=O)O)n(Cc3ccc(F)cc3Cl)c2c1,"inconclusive: 28.2 µM [inhibitor, single point]",–
COc1ccc(CNC(=S)N/N=C(\C)c2ccc(OC)cc2)cc1,"inconclusive: 7.08 µM [inhibitor, partial curve]",–
CCc1ccc(C(=O)OCC(=O)N2CCCCCC2)cc1,inactive,–

SMILES,Potency,"activity change, negative = inhibition"
CCc1cc[n+](C2=C([O-])c3ccccc3C(=O)/C2=N\S(=O)(=O)c2cccs2)cc1,"inconclusive: 22.4 µM [inhibitor, single point]",–
CCOC(=O)C1=CCN(S(=O)(=O)c2ccc(Cl)cc2)C1c1ccc(C)cc1 (centres undefined),inactive,–
CCN(C(=O)C(C)N1C(=O)/C(=C/c2ccco2)SC1=S)C1CCS(=O)(=O)C1 (centres undefined),"inconclusive: 10 µM [inhibitor, partial curve, poor fit]",–
CCn1nc([N+](=O)[O-])c(C(C#N)c2nc3ccccc3n2C)c(Cl)c1=O (centres undefined),"inconclusive: 8.91 µM [inhibitor, partial curve]",–
C/C(=N\Nc1nc(C)cc(-c2ccccc2)n1)c1ccc(F)cc1,"inconclusive: 5.62 µM [inhibitor, full curve, poor fit]",–
CCNC(=S)N/N=C/c1ccc(OCC(=O)Nc2ccc(C)cc2)cc1,"inconclusive: 12.6 µM [inhibitor, single point]",–
CN(C)Cc1c(C(=O)N/N=C/c2ccccc2OCc2c(F)cccc2Cl)nnn1-c1nonc1N,"inconclusive: 22.4 µM [inhibitor, partial curve, poor fit]",–
Cc1ccc([N+](=O)[O-])cc1N/C=C/C(=O)c1ccco1,"inconclusive: 28.2 µM [inhibitor, partial curve, poor fit]",–
CC(=O)Nc1cccc(-c2nnc(-c3ccccc3)o2)c1,inactive,–
O=C(CSc1nnc(Cc2ccccc2)o1)c1ccc(F)cc1,"inconclusive: 28.2 µM [inhibitor, single point]",–
C/C(Cl)=C\Cn1c(O)c(N=O)c2ccccc21,–,inactive: 25.3% [at 7.66 µM]
COc1ccc(C2=NS(=O)(=O)N(C)C(C(=O)Nc3ccc4c(c3)OCO4)=C2)cc1OC,"inconclusive: 28.2 µM [inhibitor, single point]",–
Cc1cc(CNC(=O)c2ccc3c(c2)OCO3)c2ccccc2n1,"inconclusive: 0.447 µM [inhibitor, full curve, poor fit]",–
CN1CCN(CCNC(=O)c2ccc3nc(-c4ccc(F)cc4)c(-c4ccc(F)cc4)nc3c2)CC1,"inconclusive: 28.2 µM [inhibitor, single point]",–
CC(=NNC(=S)N(Cc1ccccn1)Cc1ccccn1)c1cnccn1,active: 4.47 µM,–
N#CC1=C(N)NC(SCc2ccccc2)=C(C#N)C12CCCCC2,"inconclusive: 8.91 µM [inhibitor, partial curve]",–
CCCCC1C(=O)N(c2ccccc2)N(c2ccc(O)cc2)C1=O (centres undefined),"inconclusive: 11.2 µM [inhibitor, partial curve, poor fit]",–
COCCNC(=S)N/N=C(\C)c1ccc(-n2ccnc2)cc1,"inconclusive: 11.2 µM [inhibitor, single point]",–
O=S1(=O)N=C(Nc2nc3c(s2)CCCC3)c2ccccc21,"inconclusive: 1.41 µM [inhibitor, full curve]",–
COc1ccc(/C=N/Nc2nc(Nc3ccccc3)nc(N3CCCC3)n2)cc1[N+](=O)[O-],"inconclusive: 22.4 µM [inhibitor, single point]",–
N#C/C(=N\Nc1ccc(S(=O)(=O)N2CCc3ccccc32)cc1)C(N)=S,"inconclusive: 28.2 µM [inhibitor, single point]",–
Cc1c(Cl)cccc1N=Cc1ccc([N+](=O)[O-])s1,"inconclusive: 11.2 µM [inhibitor, single point]",–

SMILES,Potency,"activity change, negative = inhibition"
O=C(OCC(=O)N1CCN(c2ccccc2)CC1)c1ccccc1[N+](=O)[O-],inactive,–
C=CCN(c1ccccc1OC)S(=O)(=O)c1cccc(C(=O)OCC(=O)c2c(N)n(C)c(=O)n(C)c2=O)c1,"inconclusive: 28.2 µM [inhibitor, single point]",–
COc1ccc(NC(=O)C(=O)c2cn(CC(=O)N3CCCC3)c3ccccc23)cc1OC,"inconclusive: 14.1 µM [inhibitor, single point]",–
CC(C)Cc1ccc(C(C)C(=O)Nc2ccccc2O)cc1 (centres undefined),"inconclusive: 10 µM [inhibitor, single point]",–
Cc1ccc(C(=O)NC(=S)Nc2cccc(NC(=O)c3ccccc3)c2)cc1[N+](=O)[O-],"inconclusive: 15.8 µM [inhibitor, partial curve, poor fit]",–
Cc1cc(O)c(/C=N/Nc2ccccc2Cl)c(=O)o1,"inconclusive: 28.2 µM [inhibitor, single point]",–
Cc1ccc(C(=O)COC(=O)c2cccc(NC(=O)c3ccc([N+](=O)[O-])cc3[N+](=O)[O-])c2)cc1,"inconclusive: 12.6 µM [inhibitor, single point]",–
CCN(CC)C(=N)/C(C#N)=N/Nc1ccc(C)cc1,"inconclusive: 15.8 µM [inhibitor, partial curve, poor fit]",–
CCCC(c1nnnn1CCOC)N1CCN(c2nc3ccccc3s2)CC1 (centres undefined),inactive,–
Cc1ccc(NC(=O)CN(C)C(=O)c2ccc(Cl)nc2)cc1,inactive,–
Cc1ccc(-n2nnnc2CNC(=O)c2ccc([N+](=O)[O-])o2)cc1C,"inconclusive: 14.1 µM [inhibitor, single point]",–
CSc1ncccc1C(=O)OCC(=O)NC(C)C,"inconclusive: 12.6 µM [inhibitor, partial curve, poor fit]",–
CCc1ccccc1NC(=O)CSc1nc2ccccc2nc1Cc1cccc(OC)c1,inactive,–
FC(F)(F)c1nnc2c3ccccc3c(Cl)nn12,"inconclusive: 2.82 µM [inhibitor, full curve, poor fit]",–
Cc1cccnc1C(NC(=O)C1CCN(Cc2ccccc2)CC1)c1ccc(F)cc1 (centres undefined),inactive,–
N#CCCN(C(=S)Nc1ccc(Cl)c(Cl)c1)C1CCCCC1,"inconclusive: 28.2 µM [inhibitor, single point]",–
Cc1nc2ccccn2c1C(=O)NNS(=O)(=O)c1ccc(Cl)cc1,inactive,–
CCOc1cc(/C=C2/SC(=Nc3ccccc3)N(Cc3cccnc3)C2=O)ccc1OCC#N,"inconclusive: 10 µM [inhibitor, single point]",–
O=C(Nc1nc2ccccc2[nH]1)c1cccc(Cl)c1,"inconclusive: 28.2 µM [inhibitor, single point]",–
CN1/C(=C\C(=O)CSc2nncn2C)C(C)(C)c2ccccc21,"inconclusive: 0.891 µM [inhibitor, full curve, poor fit]",–
